From publication PMC12040169 (PLOS Biology, 2025)
The list shows a part of the results.

test system: T1, C. trachomatis L2/434/Bu expressing GFP (CTL2-GFP); parameters: species or system HeLa; C. trachomatis total inclusion area by high-content imaging, normalised to DMSO; conditions: total inclusion area; 28.5 h, 10 µM; inhibitor
T1 construct: L2/434/Bu GFP intracellular growth in HeLa cells
In short: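 Imaging read-out: GFP inclusions and Hoechst nuclei captured by high-content imaging after fixation. Inclusion area/number = chlamydial growth; nuclei count = host cell viability. MIC calculated per earlier method.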

| Compound | % of control remaining |
| --- | --- |
| CN1CCC(N(CCO)CC2(c3ccc(Cl)cc3)CC2)CC1 [CBK282781] | 100.76 |
| CC(C)Nc1cncc(Sc2ccccc2N)n1 [CBK093726] | 81.115 |
| CCn1cc(-c2cncn2CCn2nc(C)c(Cl)c2C)cn1 [CBK281708] | 93.1329 |
| N/C(CSc1cccc2c1CCCC2)=N\O [CBK006787C] | 70.6608 |
| Clc1ccc(-c2nc(C3CCN(CCc4ccccc4)CC3)n3ccccc23)cc1 [CBK035316] | 108.771 |
| CN1CCN(c2nc(-c3ccc4c(c3)CCC(=O)N4)cs2)CC1 [CBK304319C] | 52.4198 |
| COc1ccc2cc(Cn3nc(C(=O)O)c4ccccc4c3=O)c(Cl)nc2c1 [CBK295354] | 118.6 |
| O=C(C1CCCC1)N1CCC(c2cccc(Cc3ccccc3Cl)n2)CC1 [CBK286507] | 72.5663 |
| CCNC(=O)N1CCN(CCCC(O)c2ccc(F)cc2)CC1 (stereo not drawn) [CBK025001C] | 49.6091 |
| Cc1cc(S(=O)(=O)CC#N)c(C)cc1Cl [CBK018672] | 83.8214 |
| COc1ccc(C(C)C)cc1S(=O)(=O)NCCN1CCOCC1 [CBK266538] | 81.209 |
| Clc1ccc(CN2CCC(Oc3cncc(OCCN4CCOCC4)n3)C2)cc1 (stereo not drawn) [CBK084480] | 80.6616 |
| Cc1ccc(N(CC(=O)NN=C2CCCCCCCCCCC2)S(=O)(=O)c2ccccc2)cc1 [CBK262192] | 102.517 |
| O=[N+]([O-])c1ccccc1CS(=O)(=O)Nc1ccc(-c2nnn[nH]2)cc1 [CBK155430] | 85.9864 |
| O=C1CCC(C(=O)N2CCN(S(=O)(=O)c3ccccc3Cl)CC2)N1 (stereo not drawn) [CBK304561] | 56.6779 |
| COc1ccc(C(NC(=O)[C@H]2CCCN2C(=O)COc2ccccc2)c2ccccc2C)cn1 (stereo partly drawn) [CBK076682] | 74.4992 |
| CCN1C(=O)CC(n2c(C)nc3ccccc32)C1=O (stereo not drawn) [CBK287847] | 89.7967 |
| O=C(CSc1nnc(C2CC2)[nH]1)Nc1ccc(SC(F)F)cc1 [CBK295302] | 91.7453 |
| CCc1nc2ccc(C(=O)N(C)C(C)C)cn2c1N(C)CCN1CCOCC1 [CBK146436] | 101.166 |
| Cn1c(CNc2ccccc2[N+](=O)[O-])c(C#N)c2ccccc21 [CBK115324] | 90.2163 |
| Clc1ccc2nc(SCc3csc(Nc4ccccc4)n3)oc2c1 [CBK268269] | 97.4493 |

| Compound | % of control remaining |
| --- | --- |
| Cc1ccc(C(=O)NCCCNc2ccc(Cl)cc2[N+](=O)[O-])cc1 [CBK262334] | 80.8556 |
| CCC(=O)N1CCc2cc(C(O)CN3CCCC3)ccc21 (stereo not drawn) [CBK283110] | 59.7613 |
| CC(C)(C)OC(=O)NCc1ccc(-c2cc(N3CCN(C(=O)c4ccco4)CC3)ncn2)cc1 [CBK091107] | 147.294 |
| O=C(NCC1(c2cccc(Br)c2)CCOCC1)C1CC(O)CN1 (stereo not drawn) [CBK304257] | 20.3146 |
| O=C(CNC(=O)C1CC=CCC1C(=O)O)Nc1ccc(N2CCCCCC2)cc1 (stereo not drawn) [CBK295603] | 92.9856 |
| O=C(NC1CCCCC1)c1s/c(=N/O)nnc1Nc1ccccc1 [CBK022275] | 51.5107 |
| COc1cc(OC)nc(CC(=O)O)n1 [CBK103537] | 90.1311 |
| COc1cc(C)c(C)cc1S(=O)(=O)n1cnc2ccccc21 [CBK287578] | 68.1694 |
| CN(Cc1ccco1)C(=O)c1cccc(NC(=O)C2CC2)c1 [CBK304857] | 44.9126 |
| CCc1c(C(=O)NCc2cccnc2-n2cncn2)cnn1-c1ccc(OC)nn1 [CBK298309] | 91.3628 |
| CCOC(=O)CNS(=O)(=O)c1ccc(F)cc1 [CBK034442] | 90.7434 |
| COc1ccc(-c2cnc(NCC3CC3)c(C(=O)N(C)CCN(C)C)c2)cc1 [CBK076338] | 103.092 |
| CCSc1c(C)cnc2c1c(=O)n(C)c(=O)n2C [CBK287748] | 62.9743 |
| COc1ccnc(N2CCN(C(=O)C3(C#N)CCCCC3)CC2)n1 [CBK305739] | 88.4406 |
| O=C(O)/C=C/c1ccc(CNS(=O)(=O)c2ccccc2)o1 [CBK286549] | 104.202 |
| CN(C)c1cccc(-c2nc(-c3ccco3)cnc2N)c1 [CBK063970] | 156.943 |
| Nc1nnc(-c2ccc(Cl)cc2)[nH]1 [CBK025436] | 121.644 |
| Cc1noc(NS(=O)(=O)c2ccc(N/C=C\C(=O)c3cccnc3)cc2)c1C [CBK264285] | 26.8055 |
| Cc1ccc(CNC(=O)NCCc2cccs2)cc1 [CBK044960] | 87.7096 |
| O=C(CN1C2CCC1CC(O)(c1ccco1)C2)N1CCCCC1 (stereo not drawn) [CBK284093] | 79.3242 |
| COc1cccc(NC(=O)O[C@@H]2CC[C@]3(C)C(CC[C@H]4OC(=O)C[C@H]43)[C@]2(C)CO)c1 (stereo partly drawn) [CBK289576] | 120.832 |

| Compound | % of control remaining |
| --- | --- |
| O=C(OCc1ccc(Cl)cc1)c1ccc2c(c1)C(=O)N(c1cccc([N+](=O)[O-])c1)C2=O [CBK265188] | 89.7489 |
| Cc1cc(F)c(S(=O)(=O)NCCN2CCOCC2)cc1NC(=O)c1ccc(Br)o1 [CBK059091C] | 10.405 |
| CC(C)N1CCCC2(CCN(C(=O)Cc3c[nH]c(=O)n(C)c3=O)C2)C1=O (stereo not drawn) [CBK307115] | 71.0172 |
| CCOCCCNC(=O)c1cnn2c(C)c(Cc3cccc(C#N)c3)c(C)nc12 [CBK162081] | 73.7225 |
| CC(=O)Nc1cccc(-c2ccc(Nc3cccc(N(C)C)c3)nc2)c1 [CBK036829] | 139.809 |
| COc1ccc(OC)c(NC(=O)CSc2nnc(-c3ccc(N)cc3)n2C)c1 [CBK265872] | 113.161 |
| COc1cccc(C(=O)N2CCN(C(=O)Nc3ccsc3)CC2)c1 [CBK154782] | 74.0782 |
| CCN(CC)C(=O)c1c(NS(=O)(=O)c2ccc(C)cc2)sc2c1CCCC2 [CBK028627] | 111.263 |
| COc1cc([N+](=O)[O-])cc(CN2CCN(CCO)CC2)c1O [CBK261851] | 87.351 |
| COc1cc(NC(=O)NC(=O)C2CCN(C(C)=O)CC2)cc(OC)c1OC [CBK034831] | 84.7735 |
| O=C(NC(c1ccc(Cl)cc1)c1cnccn1)C1CCN(Cc2ccc(Oc3ccccc3)cc2)CC1 (stereo not drawn) [CBK148023] | 64.9052 |
| COc1ccc(/C=N/NC(=O)Cn2nnnc2N)cc1 [CBK262122] | 103.198 |
| O=C(Cc1ccc(-c2ccccc2)cc1)NCc1nnc(-c2cccs2)o1 [CBK286295] | 115.159 |
| CC1=NN(c2cccc(S(=O)(=O)O)c2C(=O)Nc2ccccc2)C(=O)C1 [CBK017343] | 75.6183 |
| Cc1ccc(Cl)cc1NC(=O)CC1NCCNC1=O (stereo not drawn) [CBK267246] | 101.174 |
| O=C(O)CN(CC(=O)Nc1ccc(Cl)cc1)Cc1ccccc1 [CBK286585] | 91.2355 |
| Cc1ccc2oc(=O)cc(N/N=C(\Cl)C(N)=S)c2c1 [CBK022357] | 73.0797 |
| Cn1c(COc2ccccc2Cl)nnc1SCC(=O)N1c2ccccc2Sc2ccccc21 [CBK266001] | 121.153 |
| CCCn1c(CN2CCOCC2)nc2c1c(=O)n(C)c(=O)n2C [CBK305911] | 26.1382 |
| Nc1ccc2c(-c3ccc(OC(F)(F)F)cc3)ccnc2n1 [CBK067649] | 78.3787 |
| O=C(NC(=S)N1CCN(CCN2C(=O)c3cccc4cccc(c34)C2=O)CC1)c1ccc2c(c1)OCO2 [CBK263577] | 91.2612 |

| Compound | % of control remaining |
| --- | --- |
| O=C(CC(NC1CCCC1)C(=O)O)Nc1cccc(Cl)c1 (stereo not drawn) [CBK266831] | 107.269 |
| CCOc1ccc(-c2nc(C#N)c(NCCN3CCOCC3)o2)cc1 [CBK265867] | 108.517 |
| CC(NC(=O)C1CC(=O)OC1(C)C)c1ccc2c(c1)CCCO2 (stereo not drawn) [CBK281613] | 102.373 |
| CS(=O)(=O)N1CCc2cc(-c3cn4ccccc4n3)ccc21 [CBK285190] | 105.948 |
| Cn1cnc([N+](=O)[O-])c1Oc1ccccc1OCc1ccccc1 [CBK002747] | 103.065 |
| O=C(O)c1cc(-c2ccc(/C=C3\NC(=O)N(Cc4ccccc4)C3=O)o2)ccc1Cl [CBK078117] | 94.8678 |
| Cn1c(C(O)c2ccccc2)n[nH]c1=S (stereo not drawn) [CBK012984] | 98.1368 |
| Cc1nn(CCS(C)(=O)=O)c(C)c1CN1CCOC(c2ccccc2)C1 (stereo not drawn) [CBK306162] | 45.3068 |
| O=C(O)/C=C/C(=O)NCCc1c[nH]c2ccccc12 [CBK287222] | 104.151 |
| OCC1CCCN1c1nccnc1-c1ccccc1F (stereo not drawn) [CBK038037] | 88.1643 |
| Cc1ccc2cc(CN(CCNC(=O)OC(C)(C)C)C(=O)NCc3ccccc3)c(=O)[nH]c2c1C [CBK132097] | 86.6192 |
| COC(=O)c1ccc2c(=O)n(CC(C)C)c(SC)nc2c1 [CBK306042] | 54.8942 |
| O=C(CS(=O)(=O)c1ccccc1)Nc1cccc2nsnc12 [CBK267949] | 103.992 |
| CCC1CCCCN1C(=O)c1cccc(C)c1C (stereo not drawn) [CBK081501] | 68.7523 |
| CCn1nc(C)c(-c2cncn2CCN(C)C2CCCC2)c1C [CBK281569] | 96.8359 |
| Oc1cc(C(F)(F)F)nc(N2CCCC2)n1 [CBK002389] | 71.7041 |
| C=CCn1c(Cc2csc(NC(=O)c3ccc(OC)c(OC)c3)n2)n[nH]c1=S [CBK295324] | 119.359 |
| COc1ccccc1CC(=O)Nc1ccc(OCC(=O)O)cc1 [CBK264194] | 111.987 |
